These are yes or no findings as the source states them, for the method shown. Some results given as binding are weak or reduced against the parent protein; the word gives no strength.
Experiments:
OsPRR1 (rice) [1] = target: T1, OsPRR1 (rice) (UniProt Q689G9); experiment: two-hybrid; β-galactosidase filter lift assay (LacZ reporter) of the co-transformed yeast colonies, X-gal as substrate, 30 °C in the dark
T1 sequence: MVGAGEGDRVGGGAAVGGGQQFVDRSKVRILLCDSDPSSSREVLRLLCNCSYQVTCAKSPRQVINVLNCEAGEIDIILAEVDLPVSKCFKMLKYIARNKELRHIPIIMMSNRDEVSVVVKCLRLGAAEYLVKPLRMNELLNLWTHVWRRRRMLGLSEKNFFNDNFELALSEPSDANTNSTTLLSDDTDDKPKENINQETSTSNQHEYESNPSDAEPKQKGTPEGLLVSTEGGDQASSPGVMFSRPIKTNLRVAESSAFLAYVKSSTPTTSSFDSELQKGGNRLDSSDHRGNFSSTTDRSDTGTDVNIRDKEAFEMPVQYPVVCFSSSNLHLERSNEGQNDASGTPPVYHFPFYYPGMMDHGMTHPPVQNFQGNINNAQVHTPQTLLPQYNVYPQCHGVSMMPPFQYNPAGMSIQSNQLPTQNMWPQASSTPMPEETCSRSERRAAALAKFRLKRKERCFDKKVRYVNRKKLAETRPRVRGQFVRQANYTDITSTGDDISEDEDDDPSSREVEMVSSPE

OsPRR1 (rice) [2] = target: T1, OsPRR1 (rice); experiment: two-hybrid; S. cerevisiae AH109; bait in pGBD-C1 (GAL4 binding domain; written as target), prey in pGAD-C1 (GAL4 activation domain; written as binder); serial dilutions spotted on triple drop-out medium with 5 mM 3-AT (HIS3) and quadruple drop-out medium (ADE2), 30 °C; growth on quadruple drop-out shows strong interaction
OsPRR73 (rice) = target: T2, OsPRR73 (rice) (UniProt Q10N34); experiment: as above
T2 sequence: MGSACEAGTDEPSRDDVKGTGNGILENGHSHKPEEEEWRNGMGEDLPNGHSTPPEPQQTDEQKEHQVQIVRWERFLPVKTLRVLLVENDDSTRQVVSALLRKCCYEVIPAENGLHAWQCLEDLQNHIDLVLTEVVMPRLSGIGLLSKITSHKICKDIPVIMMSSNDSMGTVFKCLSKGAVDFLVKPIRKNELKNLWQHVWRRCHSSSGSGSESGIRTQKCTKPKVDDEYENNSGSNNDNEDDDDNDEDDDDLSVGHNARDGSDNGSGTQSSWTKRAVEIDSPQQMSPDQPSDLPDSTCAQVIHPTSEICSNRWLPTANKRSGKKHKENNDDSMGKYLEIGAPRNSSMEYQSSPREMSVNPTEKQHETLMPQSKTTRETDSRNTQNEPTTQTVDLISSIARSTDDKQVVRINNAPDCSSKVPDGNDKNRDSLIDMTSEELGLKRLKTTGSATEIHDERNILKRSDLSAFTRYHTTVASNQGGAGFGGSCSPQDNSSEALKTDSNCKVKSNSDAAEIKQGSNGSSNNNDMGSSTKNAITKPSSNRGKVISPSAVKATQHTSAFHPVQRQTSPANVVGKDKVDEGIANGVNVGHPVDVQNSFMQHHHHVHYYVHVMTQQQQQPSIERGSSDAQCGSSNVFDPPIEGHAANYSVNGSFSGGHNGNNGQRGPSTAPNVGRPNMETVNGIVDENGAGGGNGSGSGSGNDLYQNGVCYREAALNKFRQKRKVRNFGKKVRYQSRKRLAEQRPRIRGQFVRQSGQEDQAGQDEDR

B1: OsPRR37 (protein, UniProt Q0D3B6 1-742)
chain: MMGTAHHNQTAGSALGVGVGDANDAVPGAGGGGYSDPDGGPISGVQRPPQVCWERFIQKKTIKVLLVDSDDSTRQVVSALLRHCMYEVIPAENGQQAWTYLEDMQNSIDLVLTEVVMPGVSGISLLSRIMNHNICKNIPVIMMSSNDAMGTVFKCLSKGAVDFLVKPIRKNELKNLWQHVWRRCHSSSGSGSESGIQTQKCAKSKSGDESNNNNGSNDDDDDDGVIMGLNARDGSDNGSGTQAQSSWTKRAVEIDSPQAMSPDQLADPPDSTCAQVIHLKSDICSNRWLPCTSNKNSKKQKETNDDFKGKDLEIGSPRNLNTAYQSSPNERSIKPTDRRNEYPLQNNSKEAAMENLEESSVRAADLIGSMAKNMDAQQAARAANAPNCSSKVPEGKDKNRDNIMPSLELSLKRSRSTGDGANAIQEEQRNVLRRSDLSAFTRYHTPVASNQGGTGFMGSCSLHDNSSEAMKTDSAYNMKSNSDAAPIKQGSNGSSNNNDMGSTTKNVVTKPSTNKERVMSPSAVKANGHTSAFHPAQHWTSPANTTGKEKTDEVANNAAKRAQPGEVQSNLVQHPRPILHYVHFDVSRENGGSGAPQCGSSNVFDPPVEGHAANYGVNGSNSGSNNGSNGQNGSTTAVNAERPNMEIANGTINKSGPGGGNGSGSGSGNDMYLKRFTQREHRVAAVIKFRQKRKERNFGKKVRYQSRKRLAEQRPRVRGQFVRQAVQDQQQQGGGREAAADR
binding (OsPRR1 (rice) [1]): binds | binding (OsPRR1 (rice) [2]): binds | binding (OsPRR73 (rice)): no binding

Reference: paper PMC5571105
